According to the supplement of paper PMC3334620:
The full ranking holds about 33,000 sequences; the median of “E-score (-0.5 to 0.5)” is about -0.016, and the highest 2% start at about 0.32. The list shows a part of the results.

The sequences below were run against T1, Stp1 (UniProt B3LFK1) (assay: PBM E-score (8-mer binding enrichment) (E-score (-0.5 to 0.5)); higher = stronger / more preferred TF binding; most listed sequences are background and not binding sites). Settings: protein concentration: 200 nM; construct: GST-full length.
T1 sequence: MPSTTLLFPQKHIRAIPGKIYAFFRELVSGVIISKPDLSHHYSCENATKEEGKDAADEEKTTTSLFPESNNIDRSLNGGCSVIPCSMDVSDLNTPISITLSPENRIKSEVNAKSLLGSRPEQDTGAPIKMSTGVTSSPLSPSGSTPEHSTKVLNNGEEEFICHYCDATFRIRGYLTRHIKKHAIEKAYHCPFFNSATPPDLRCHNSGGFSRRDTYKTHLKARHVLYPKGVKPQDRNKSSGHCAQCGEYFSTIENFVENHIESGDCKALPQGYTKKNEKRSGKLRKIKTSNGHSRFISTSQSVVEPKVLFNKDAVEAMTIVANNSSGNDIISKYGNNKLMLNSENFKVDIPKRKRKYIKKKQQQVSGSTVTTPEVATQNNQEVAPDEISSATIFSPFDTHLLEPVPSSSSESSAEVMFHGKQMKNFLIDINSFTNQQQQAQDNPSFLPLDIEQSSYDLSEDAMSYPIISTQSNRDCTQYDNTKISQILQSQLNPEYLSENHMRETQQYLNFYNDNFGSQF
How it was run: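 GST-tagged yeast TFs (full-length or DNA-binding domain) were made by PURExpress in vitro transcription/translation and applied at about 100-200 nM to universal all-10-mer Agilent arrays. The arrays were made double-stranded by primer extension, on fresh or once-stripped slides. Bound protein was detected with fluorescent anti-GST, and scans were normalised with masliner. Each ungapped eight-base word, pooled with its reverse complement, received an E-score (modified Wilcoxon-Mann-Whitney statistic) from the Universal PBM Analysis Suite.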

Sequence	PBM E-score
AAGCCGTG	0.419
CGGGTTTC	0.148
AACAGATT	-0.0644
ATATCCTG	-0.0264
CGGTTAAC	-0.183
AGGCCTAC	-0.0947
CGGTATAA	0.00498
CGTTAAGC	0.0167
AAAACACT	0.141
CTTCACTC	-0.132
GGCTTACC	-0.155
CTGTTGCA	0.0698
AGACTGGC	-0.108
ACCTCTTC	-0.0189
GCTATCTA	-0.246
GAGGGCCA	-0.273
AAAACGCC	0.386
AGGCATCG	0.348
ACCTGCGC	0.064
AGGGACGC	-0.103
AGAACGTC	-0.075
GATTCTCA	0.0487
AGGCCCTC	-0.337
AACGAGAT	-0.0577
CCAAGTAC	-0.0924

Sequence	PBM E-score
GTACTGGA	-0.0214
AGTCCCGC	-0.219
ACGTTGGA	-0.0682
CAGCCTTC	-0.091
CCCTAACA	0.152
GAACGTAA	0.0655
GAGTCTGC	-0.195
AAGCTGTC	-0.113
ACTAGTAC	0.0933
ACTCCCAA	-0.149
CTCGAAAG	-0.053
CGTTCTAG	0.0253
CTAGACAG	-0.131
AATTAAGA	0.00198
GATCTTCA	-0.025
ACTAAAAA	0.1
GCCTTTTA	0.25
CAATGACA	0.113
CTACAGCA	-0.0439
GAGACCAA	-0.0978
ACGATGAG	0.0505
GTGTGCAA	-0.0959
GCTGTTGA	0.169
CCCTAATA	-0.0986
GCATTCAA	0.108

Sequence	PBM E-score
GAGACATA	-0.0964
CGATCACA	0.081
ACACACCT	-0.0579
CGACCGCG	-0.0161
CGCCTGAG	0.0354
GAAATAAA	0.117
AATGGTAA	0.135
CAAACTGA	0.0414
CATAAGTA	-0.138
CCACCCCA	-0.104
ATATTACG	0.186
CGGACGCA	0.11
ACCACGAG	-0.0233
AGCTTGTC	-0.0324
AATGATCG	-0.0176
ATTTATAG	0.00848
CGCCCGTA	-0.183
CGCCTCGC	0.394
ACATTAGC	0.059
ACTATGAT	-0.05
ACTTACTC	-0.151
CATTAGAA	0.0803
ATGGGACA	-0.14
GCACGGCC	0.415
AATTGAGA	0.111

Sequence	PBM E-score
CCGATTAC	0.039
GAGGCCAA	-0.164
ATCAAATC	0.0401
CAGGACAG	-0.133
GGGCACCC	-0.0477
ACCAGTAT	-0.033
AAGAAACA	0.23
TACCACTA	-0.0678
ACTGGGTA	-0.165
AAATTTCA	-0.0423
ACCTGGCA	0.00764
ATCTTATG	0.169
TGCTAACA	0.0225
ATTGGATA	-0.0216
CGTTTCAA	0.196
GTAGACCA	-0.11
AATATCGT	0.141
AGAATACA	0.0536
GATGGCGA	0.0798
CGGGAGGA	-0.0414
AGGGCAGG	-0.0487
ATTCTGCG	0.0136
GATGCTCA	-0.0782
AATCTGGC	-0.102
AACGAGCG	0.132

Sequence	PBM E-score
AAGTCGCG	0.107
ACAGTAAT	0.104
TAAAATAA	0.198
CGGACTTC	-0.168
GCTCGACC	-0.00701
CACCTATC	0.02
TCGGTTCA	-0.0318
CTACCGGA	-0.184
GGACAGTA	0.13
CTGCTTTA	0.0746
CACCTGAA	0.00559
CATTAAGG	0.055
CGACACCG	0.0193
AGCTATGG	-0.35
AAATAACT	0.237
ATACCATA	0.0791
CGTTGAGC	0.0153
ACGCCCGT	0.0535
TGGACGAA	0.178
CTGGTGCC	0.252
GGAGTGGA	-0.186
CAACCTAA	0.0337
GAAAGGCA	0.376
GTCGACGA	0.0158
CCCTGGTA	-0.202

Sequence	PBM E-score
ATCTGTAC	0.0678
CATGAAAC	0.0822
ACGGCGAA	0.465
TACGTCCA	-0.0569
AGTGATCG	-0.106
ATGAACGG	0.194
CTAGCGTC	-0.191
ACTGTATA	0.0748
CTGACGTA	-0.218
CTCGGTGA	-0.00917
AGGATCAC	-0.134
CCCTCAAG	-0.258
ACCTCAAC	-0.113
CCATCAGA	-0.153
CAAAGAAC	0.138
GTATAGAA	0.147
CCAGAAGA	-0.0522
CCTTTCAA	0.0517
ACGCGATG	-0.0652
CTCCCGAC	-0.159
AAGGCTTC	-0.034
GCGCAGAC	0.21
ACAGCCCC	-0.177
GAGAGATA	0.0131
CCTACAAG	-0.0854

Sequence	PBM E-score
ATGATAGA	-0.0649
CGACTCTA	-0.183
ACCAAACA	0.201
CCCTGACC	-0.133
CACCACAG	-0.131
GGGTGAGA	-0.211
CAGAAATG	0.0836
CGGTTCAG	-0.23
CCTCTTTA	-0.092
GTAGTGTA	0.0564
ATGGACAT	0.0787
AACCCATC	-0.212
ACCATTTC	0.0143
CCCGTAAG	-0.0633
GCGAGCCA	-0.162
CAGATCGG	0.00691
CGTACAGC	0.0658
ACTCTGCA	-0.124
ATTATTGG	0.00493
CCTAGATC	-0.254
GCTAAAGC	0.00155
GACCCAAA	-0.029
TAAGTGAA	0.0191
CGCCACCC	-0.0778
GGCAAGAC	0.13

Sequence	PBM E-score
ATCACCTG	-0.0957
CAAAATAC	0.139
CCAATTGA	-0.0301
GCCCTCCC	-0.141
AGCGATAT	0.048
ATGCACTA	0.0688
GTTATTCA	0.136
ATAATGTA	0.0185
CAGTGTTA	-0.03
AACAGGCG	-0.0221
GCGTGGCA	0.261
CCGCTTGA	0.171
GATCGACC	-0.0995
ACCCGACC	-0.227
TAGGGCAA	0.0639
CAGTCATA	-0.0911
CATGGACA	-0.0411
CAGCTATG	-0.158
ATACCCCG	-0.0762
CATTCAGC	-0.0399
AAGGGCAA	0.149
AGTGACAG	-0.0243
GATCAGAA	-0.244
CTACAAAG	-0.0173
CATGTCCA	0.0739

Sequence	PBM E-score
GTCGCGCA	-0.0403
CTACCCAA	-0.00763
AAATGTAA	0.207
AGTTTCTC	-0.051
GGCCTGAA	-0.011
ACTTGTCG	-0.0579
CAATCAAC	0.15
GGAAACCA	-0.233
GAAGGACA	0.0893
ACAGCGTA	-0.104
ACTCTACG	-0.081
AGTGGGGC	-0.231
GAAGTGCA	0.0643
TCACGTCA	-0.135
TTTGCAAA	0.129
GTCTAGCA	-0.136
AAGATAAT	0.0995
GCGGTCAA	0.0834
CCGCGGTC	-0.0134
CATATTTA	0.199
GCCCTAGC	0.00456
ACGGTAAA	0.0838
ACTCCAAG	-0.0634
TAAAGTGA	0.135
ACAATGCG	-0.0211

Sequence	PBM E-score
ACAGTGTA	0.0314
ACCCTTGA	-0.193
GAGTTGCC	0.235
AGAGCGAC	-0.213
AGATGACG	-0.0798
AAAAACGC	0.125
AAGACGTC	-0.109
CCTATGAG	-0.0357
CCCTCGAG	-0.161
CATCTCGC	0.0407
AGCTAGTC	-0.269
AACTGTCA	-0.0285
ACCTGCAG	-0.357
AGTTGCGA	0.0797
ATCTAACG	0.107
AGAAGCAC	-0.164
AATCTAGA	-0.112
CGGACCGC	-0.025
GGTGCTCA	-0.173
AGATCAGA	-0.103
CGTTCTCC	-0.116
ACCTAAGC	-0.0624
CGGATACC	0.0583
TGCCACCA	-0.137
ACTGATAG	-0.0401

Sequence	PBM E-score
ACGTTAAG	0.0506
AGTAGGAC	-0.113
AGCCCTTC	-0.0562
TTACGTAA	0.00287
CAGCTGCA	0.114
CAAGTCTC	-0.32
GCTGCGCC	0.152
CAACTAAG	-0.0282
GAACCAAA	-0.147
AGCATAAA	0.0182
ACCGAAAT	0.0238
AGCCACCC	-0.188
AAAGGTAT	0.0191
AGCAGTCG	-0.237
ACGTCCAC	-0.0391
AGAACGAA	0.148
AGCCGTAC	0.432
CGAGCATC	-0.166
TGAAGACA	0.0418
GATAAGAA	0.216
CCCGGCCA	-0.341
CGCGCCGA	0.362
AGCCGACT	-0.122
ACAAACAG	0.0617
TCTGGGCA	-0.189

Sequence	PBM E-score
AGGCCACG	0.0478
TAGCGCGA	0.16
CGATTGAA	-0.0712
CTACATGA	-0.196
CTGTTTGC	0.0866
CGATAGTA	-0.0416
ACGGGAAC	-0.0529
CTAGGCGA	0.0424
GACTTTAC	0.0152
ATTGTTCA	0.105
AGAAGGAA	-0.0319
AGATAGCA	-0.0406
AGCGTTAA	0.0253
ACGTGTTA	0.116
CCTGCTGC	-0.076
ACTAAGCA	0.00802
AGGTTTCA	0.00551
GAAGTGTC	-0.0596
ACTGAGTG	-0.00286
ACCCGCGT	0.11
GGGGCAGA	-0.0961
CATATACC	-0.135
GTTTCGCA	-0.0969
TACTATCA	0.0875
ACGCACCA	0.189

Sequence	PBM E-score
ATCAGAGA	-0.175
CATTCTAA	0.0982
AATCACTC	0.0783
AAAACAGA	0.0828
CGCTCGCA	0.117
CTTGATAA	0.107
GTCAGCAC	-0.117
ACTCTGTC	-0.134
ATACTTTC	-0.0221
GCCACGAA	0.0264
CCCTCTCA	-0.314
ACTCGAAG	0.0164
CCCCAAAC	-0.158
CCCGAGTA	0.0279
TAATCCAA	0.0564
CCGCACTA	0.162
CTTCCTAA	-0.0988
CCGAACCC	-0.279
CGTGGGAG	-0.0189
ACCCCCAT	-0.277
ATATGTCC	-0.00048
CCAATGAG	-0.166
AGCTGTCG	-0.209
ACAAGTTC	-0.0226
GTCGACAA	-0.192

Sequence	PBM E-score
TATACAAA	0.192
GGGCGTGA	-0.0128
CCGAAGAG	-0.0038
GCCGCTTA	0.39
AACGGACC	-0.0968
ACCGAGAG	-0.176
GGAACTAA	0.0415
AGCCAGAT	0.00579
ATCACAGA	0.0244
AGGCAAAA	0.344
AATTACGC	-0.0818
CTGACGGC	0.0432
CGGGTTCA	0.0646
CATATAAC	0.138
ACCCCACT	-0.243
CACTTCCA	0.0126
AGCGCCTC	0.389
AGTCCACA	-0.0519
ACAGTATG	-0.0585
